Results published in PubChem BioAssay AID1963576 (National Center for Advancing Translational Sciences (NCATS), 2024).
Screen size: about 46,000 compounds; about 60 (0.1%) were called active. Inconclusive results, whose numbers are uncertain, are shown with a selection of clear calls. Calls follow the shape of the dose curve; as a rule, active = well fitted inhibition curve with a large enough effect; inconclusive = small, poorly fitted or top-dose-only effect; inactive = no such curve, though single readings can be large or run the other way. A potency beside an inconclusive call is a rough fit, not a confirmed value.

experiment: Primary qHTS assay for Inhibitors of ovarian cancer metastasis using an organotypic tumor microenvironment (TME) model.; also: nearly all actives have a fitted effect of over 65% in size;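 as to activity change, negative = inhibition: plate controls were DMSO wells for no effect and tomatine positive control wells for full effect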;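 as to potency: count of GFP cancer cells still attached after washing and fixation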; conditions: SKOV3ip1-GFP adhesion/invasion on 3D omental model, fluorescence; activity change, negative = inhibition: at 45.8 µM (top of the series); series mostly up to 45.8 µM
Outline: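 Adhesion/invasion was scored as fixed GFP-labeled SKOV3ip1 cell counts (488/509 nm), normalized to DMSO and tomatine controls. Cancer cells in serum-free medium, with four compound doses (0.36-46 umol/L), sat 2 hr at RT then 16 hr at 37 C on a 48 hr fibroblast/mesothelial/ECM culture.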
Potency is read from the fitted curve at half-maximal effect; tags tell the direction and shape of the fitted curve.

Activity change, negative = inhibition, inactive:
CC(C)(C)C1CCc2nc(NC(=O)c3cccc(Cl)c3)sc2C1 (stereo not drawn) -14%
CC(=O)N1CCCC1c1nc2ccccc2n1Cc1c(F)cccc1Cl (stereo not drawn) 2.99%
CCCCOCCOc1nc(-c2ccc(C(=O)O)c(F)c2)sc1C -0.334%

Potency, inconclusive:
COC(=O)c1cc2oc3ccccc3c2n1CC(=O)Nc1cccc(SC)c1 22.4 µM [inhibitor, single point]
Cc1nc2c(-c3ccccc3)c(C)[nH]n2c(=O)c1Cc1ccc(Br)cc1 11.2 µM [inhibitor, partial curve]
CCOc1ccc(CC(=O)NCCc2sc(-c3cccc(F)c3)nc2C)cc1 35.5 µM [inhibitor, single point]
O=C(Cn1c(-c2cccs2)cc2ccccc21)NCCCN1CCN(c2cccc(Cl)c2)CC1 35.5 µM [inhibitor, single point]
CS(=O)(=O)c1ncc(Cl)c(C(=O)N(Cc2ccc(Cl)cc2)Cc2ccco2)n1 2.82 µM [inhibitor, full curve, poor fit]
Cc1cc(C)cc(NC(=O)C2CCCN(c3nnc(C)c4c(C)n(-c5ccccc5)nc34)C2)c1 (stereo not drawn) 14.1 µM [inhibitor, single point]
Cc1ccc2c(c1)cc(C(=O)Nc1ccccc1C)n2C 11.2 µM [inhibitor, partial curve, poor fit]
Cc1cccc(C)c1OCC(=O)NCC1(N2CCOCC2)CCCCC1 7.94 µM [inhibitor, partial curve, poor fit]
CCc1nn(CC(=O)NC(C)C)c(=O)c2cc3cc(F)ccc3n12 35.5 µM [inhibitor, single point]
O=C(Cn1cc(SCc2ccc(C(F)(F)F)cc2)c2ccccc21)N1CCCCC1 14.1 µM [inhibitor, single point]
Cc1cccc2nc(-c3cccnc3)c(Nc3ccc(C(C)C)cc3)n12 35.5 µM [inhibitor, single point]
CCCCOc1c(Cl)cc(C(=O)N(Cc2ccc(C)o2)C2CCS(=O)(=O)C2)cc1Cl (stereo not drawn) 35.5 µM [inhibitor, single point]
O=C(Nc1cccc(Cl)c1)c1c(NC(=O)C(F)(F)F)sc2c1CCCC2 3.16 µM [inhibitor, full curve]
Cc1cn2c(=O)cc(COc3ccc(NC(=O)c4cccc(F)c4)cc3)nc2s1 11.2 µM [inhibitor, single point]

outcome, inactive:
Cc1ccccc1OCC(=O)Nc1ccc2[nH]c(=O)sc2c1
